# Source: PubChem BioAssay AID588855 (National Center for Advancing Translational Sciences (NCATS), 2011)
# Out of some 410,000 compounds screened, about 5,000 (1.2%) were called active. The inconclusive results got no clear call from the source; some entries with a clear call stand among them for comparison. Calls come from the whole dose curve; as a rule, active = well fitted inhibition curve with a large enough effect; inconclusive = small, poorly fitted or top-dose-only effect; inactive = no such curve, though single readings can be large or run the other way. Potencies of inconclusive entries are doubtful fits and often do not repeat.
# Assay: qHTS for Inhibitors of TGF-b; note: nearly all actives have a fitted effect of over 65% in size
# Conditions: HepG2 CAGA-GFP TGF-b/SMAD3 reporter, GFP fluorescence, 18 h, TGF-beta stimulated, 500 pg/mL final; series mostly up to 46.1 µM; activity, negative = inhibition: at the top concentration
# Method in brief: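 TGF-beta reporter screen: HEPG2 CAGA-GFP, 1% FBS, 500 pg/mL TGF-beta final, 18 h; per-cell GFP summed per well; curves fitted and categorized by class.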
# % is set by controls: 0 for no effect and ±100 for the full control effect; potency is the fitted concentration of half-maximal effect; tags give direction and shape of the fitted curve.
Structure (SMILES),Potency,"activity, negative = inhibition"
CSc1ccccc1NC(=O)CN(C)CC(=O)NCc1ccccc1,"inconclusive: 2.51 µM [inhibitor, partial curve, poor fit]",–
CCN(C(=O)c1cc(Cl)ccc1OC)c1ccccc1,"inconclusive: 35.5 µM [inhibitor, single point]",–
Cc1cccc(N2CCN(C(=O)Cn3ncc4c3-c3ccccc3OC4)CC2)c1C,"inconclusive: 31.6 µM [inhibitor, single point]",–
Cc1ccccc1C(=O)/C(C#N)=N/Nc1c(C)n(C)n(-c2ccccc2)c1=O,"inconclusive: 15.8 µM [inhibitor, single point]",–
CCNC(=S)NNC(=O)c1cc(Br)cs1,"inconclusive: 28.2 µM [inhibitor, single point]",–
NC(Cc1ccc(F)cc1)c1csc(Nc2ccc(C(F)(F)F)cn2)n1 (stereo not drawn),active: 10 µM,–
O=C(COC(=O)c1ccccc1C(=O)c1ccc(Cl)cc1)NCC1CCCO1 (stereo not drawn),–,inactive: 7.11%
Cc1c(C)n2c(SCC(=O)N3CCN(c4ccccc4)CC3)nnc2[nH]c1=O,"inconclusive: 3.55 µM [inhibitor, single point]",–
Clc1ccc(Cl)c(OCCCCN2CCNCC2)c1,"inconclusive: 5.62 µM [inhibitor, single point]",–
CCCCCN(C(=O)COC(=O)COc1c(C)cc(C)cc1C)c1c(N)n(CCCC)c(=O)[nH]c1=O,"inconclusive: 14.1 µM [inhibitor, single point]",–
CCc1nn(CCCC(=O)N2CCN(c3ccc(OC)cc3)CC2)c(=O)c2cc3occc3n12,"inconclusive: 10 µM [inhibitor, partial curve, poor fit]",–
COc1ccc(CCNC(=O)c2ccc3c(c2)c(C)c(C)n3Cc2ccccc2)c(OC)c1OC,–,inactive: 0%
CCCCNc1c(-c2ccc(-c3ccc(C(C)=O)cc3)c(OC)c2)nc2cnccn12,"inconclusive: 12.6 µM [inhibitor, partial curve, poor fit]",–
COc1ccc(CNC(=O)CCCc2nnc3n(CCC(C)C)c(=O)c4sccc4n23)cc1,"inconclusive: 11.2 µM [inhibitor, partial curve, poor fit]",–
O=C(CC1CC2CCC1C2)NC1CCCCCCC1 (stereo not drawn),–,inactive: 6.64%
Cc1ccccc1CN1C[C@@H]2C[C@@H](c3cnc(N4CCOCC4)s3)N3CCC[C@@]23C1=O,"inconclusive: 11.2 µM [inhibitor, partial curve, poor fit]",–
Cc1ccc(S(=O)(=O)N2C[C@H]3[C@H]4C(=O)N(Cc5ccccc5)C(=O)[C@H]4CC(=O)[C@H]3[C@@H]2c2ccccc2)cc1,–,inactive: -28.2%
COCCOC(=O)C1=C(C)N=C2SCCC(=O)N2C1c1ccc(OC(=O)c2ccco2)cc1 (stereo not drawn),"inconclusive: 14.1 µM [inhibitor, single point]",–
CC(=O)c1cccc(-n2c(=O)c3c4c(sc3n(CC(=O)c3ccc(Cl)cc3)c2=O)CN(C(C)=O)CC4)c1,"inconclusive: 11.2 µM [inhibitor, partial curve, poor fit]",–
CC1CCCCN1C(=O)CSc1n[nH]c(-c2ccccc2)n1 (stereo not drawn),"inconclusive: 6.31 µM [inhibitor, single point]",–
CCC(C)Nc1nc(-c2ccc3c(c2)NC(=O)CO3)cs1 (stereo not drawn),"inconclusive: 31.6 µM [inhibitor, single point]",–
Cc1cccc(C(=O)N(Cc2ccco2)Cc2ccccc2F)c1,"inconclusive: 3.16 µM [inhibitor, full curve]",–
O=[N+]([O-])c1ccc(N2CCN(Cc3ccc(Br)o3)CC2)cc1,"inconclusive: 12.6 µM [inhibitor, partial curve, poor fit]",–

Structure (SMILES),Potency,"activity, negative = inhibition"
O=C(CSc1nc2ccccc2c(=O)n1CCCN1CCOCC1)NC12CC3CC(CC(C3)C1)C2,"inconclusive: 22.4 µM [inhibitor, single point]",–
O=C(Nc1ccc(N2CCOCC2)cc1)c1cnsn1,–,inactive: 11.6%
O=C(OCc1ccccc1)N1CCC2CC1c1ccc(-c3cccc(F)c3)cc12 (stereo not drawn),"inconclusive: 11.2 µM [inhibitor, partial curve]",–
Cc1ccc([C@H]2C(C(=O)O)=CC[C@@H](c3ccc(C)cc3)N2S(=O)(=O)c2ccccc2C)cc1,–,inactive: -7.9%
O=C(C[n+]1ccncc1)c1ccc2ccccc2c1,–,inactive: 0.494%
O=C(NC12CC3CC(CC(C3)C1)C2)c1ccc(COc2ccc(Cl)cc2[N+](=O)[O-])o1,"inconclusive: 15.8 µM [inhibitor, single point]",–
COc1cc2c(C(=O)N3CCOCC3)c(CSc3ccccc3)n(C)c2cc1Br,"inconclusive: 8.91 µM [inhibitor, partial curve, poor fit]",–
Cc1cc(C)cc(OCC(=O)N/N=C/c2ccc([N+](=O)[O-])o2)c1,"inconclusive: 22.4 µM [inhibitor, single point]",–
COC(=O)CC1=C(C(=O)OC)C(c2ccncc2)C(C#N)=C(N)O1 (stereo not drawn),"inconclusive: 7.94 µM [inhibitor, partial curve]",–
COc1cc(C(=O)NC2CCN(Cc3nnnn3Cc3ccc(F)cc3)CC2)cc(OC)c1OC,"inconclusive: 1.26 µM [inhibitor, full curve]",–
N#Cc1ccc(NC(=O)Nc2ccc(Oc3ccc(NC(=O)Nc4ccc(C#N)cc4)cc3)cc2)cc1,active: 5.62 µM,–
CCOc1ccc(/C=N/NC(=O)c2csc(C)c2C)c(OCC)c1,–,inactive: 3.52%
COc1ccc(/C=N/NC(=O)c2cc3cc(OC)c(OC)cc3[nH]2)cc1,–,inactive: 22.7%
CC(C)(C)OC(=O)CNC(=O)c1nc[nH]c1C(=O)NCc1ccc(CNC(=O)OC(C)(C)C)cc1,–,inactive: -30.1%
O=C(COc1ccc(Br)cc1Cl)NC1CCCCC1,"inconclusive: 12.6 µM [inhibitor, single point]",–
CC(=C/c1ccc(C(C)C)cc1)/C=N/NC(=O)CSc1ccccn1,"inconclusive: 22.4 µM [inhibitor, single point]",–
Cc1ccnc(NC(=O)CCCc2c[nH]c3ccccc23)c1,"inconclusive: 20 µM [inhibitor, single point]",–
COc1cccc(-c2cnc(C(O)c3ccc(Cl)cc3)[nH]2)c1 (stereo not drawn),–,inactive: -0.593%
COc1ccc(NC(=O)Nc2cc(C)ccc2F)cc1OC,–,inactive: -1.49%
Oc1ccccc1/C=N/NC(=S)NC1CC2CCC1C2 (stereo not drawn),"inconclusive: 25.1 µM [inhibitor, single point]",–
Cc1ccc(S(=O)(=O)N2CCc3cc(C(=O)NCCc4ccccc4)ccc32)cc1,"inconclusive: 0.224 µM [inhibitor, full curve, poor fit]",–
O=[N+]([O-])c1cccc(/C=N/Nc2nc(NCc3ccccc3)nc(N3CCOCC3)n2)c1O,"inconclusive: 12.6 µM [inhibitor, partial curve]",–
CC[C@@H]1C(c2cccc(C)c2)=NN(c2ccccc2)[C@H]1C(=O)N1CCOC1=O,"inconclusive: 12.6 µM [inhibitor, partial curve, poor fit]",–

Structure (SMILES),Potency,"activity, negative = inhibition"
COc1ccc(C2c3ccc(O)cc3Oc3ncn(CC(C)C)c(=N)c32)cc1 (stereo not drawn),"inconclusive: 0.891 µM [inhibitor, full curve]",–
CCOCCCNC(=O)c1ccc2c(c1)ncn2-c1ccc(CC)cc1,"inconclusive: 35.5 µM [inhibitor, single point]",–
CC(=O)c1cccc(NC(=O)CN(C2CCCCC2)S(C)(=O)=O)c1,–,inactive: -10.3%
Cc1ccc(C2C3=C(CC(C)(C)CC3=O)NC3=C2C(=O)c2ccccc23)cc1 (stereo not drawn),–,inactive: -4.65%
CC(C)Nc1nc(NCc2ccccc2)c2sccc2n1,"inconclusive: 35.5 µM [inhibitor, single point]",–
CC(=O)c1ccc(-c2cnc3c(NC=O)cc(-c4ccc(N5CCN(C)CC5)cc4)cn23)cc1,"inconclusive: 14.1 µM [inhibitor, single point]",–
COc1ccccc1-c1c(C)nn2c(N3CCN(Cc4ccccc4)CC3)cc(C)nc12,"inconclusive: 5.01 µM [inhibitor, partial curve]",–
CC(C)N(C)c1ncnc2c1ncn2[C@H]1CN(Cc2ccc(-c3ccccc3)cc2)C[C@@H](CO)O1,"inconclusive: 35.5 µM [inhibitor, single point]",–
COc1cccc(CNC(=O)CCn2c(=O)c3cccn3c3cccnc32)c1OC,–,inactive: -27.3%
CC1CN(S(=O)(=O)c2cc(C(=O)N(C)Cc3cccs3)ccc2Cl)CC(C)O1 (stereo not drawn),–,inactive: -15.9%
COc1ccc2[nH]c3c(c2c1)CCN1C(=O)C(CC(=O)NCc2ccco2)C[C@H](C(=O)N(C(C)C)C(C)C)[C@@]31C (stereo partly drawn),"inconclusive: 11.2 µM [inhibitor, partial curve, poor fit]",–
CCCCCCOC(=O)Nc1ccc(S(=O)(=O)Nc2cccc([N+](=O)[O-])c2)cc1,"inconclusive: 25.1 µM [inhibitor, single point]",–
CCOC(=O)c1ccccc1NC(=O)c1ccc2c(Cl)c3c(nc2c1)CCC3,–,inactive: -0.648%
Cc1ccc(CC(=O)Nc2ccc(F)c([N+](=O)[O-])c2)cc1,–,inactive: -0.132%
CC(=O)Nc1cc(-c2ccccc2)nn1Cc1cccc(Cl)c1,–,inactive: -22.3%
Cc1cccc(NC(=O)NCCOCCn2c(=O)oc3ccccc32)c1C,–,inactive: -26.7%
Cc1ccc(OCCn2c(=O)cnc3ccccc32)cc1,"inconclusive: 11.2 µM [inhibitor, partial curve, poor fit]",–
O=C(CSc1cccc[n+]1[O-])NC1CCCCC1,–,inactive: -5.22%
CCCCN(C)CCN1C(=O)C2C(C(=O)Nc3cccc(OC)c3)C3C=CC2(O3)C1C(=O)NC1CCCCC1C (stereo not drawn),–,inactive: -18.9%
CC(C)CC(=O)NC(=S)Nc1ccc(NC(=O)c2ccco2)cc1,–,inactive: 7.27%
O=C(O)c1ccccc1NCc1ccco1,–,inactive: -6.69%
O=[N+]([O-])c1ccc(Sc2ncccn2)c([N+](=O)[O-])c1,"inconclusive: 6.31 µM [inhibitor, full curve, poor fit]",–
